Experimental findings from PMC4833508 (ACS chemical biology, 2016) are described below.

The target in the assay is PaFSCT (Diaporthe amygdali, UniProt A2PZA5). The conditions noted are these: 3 Co2+; binds in the DMAPP site.
Sequence of PaFSCT (A2PZA5 390-719 limits assumed): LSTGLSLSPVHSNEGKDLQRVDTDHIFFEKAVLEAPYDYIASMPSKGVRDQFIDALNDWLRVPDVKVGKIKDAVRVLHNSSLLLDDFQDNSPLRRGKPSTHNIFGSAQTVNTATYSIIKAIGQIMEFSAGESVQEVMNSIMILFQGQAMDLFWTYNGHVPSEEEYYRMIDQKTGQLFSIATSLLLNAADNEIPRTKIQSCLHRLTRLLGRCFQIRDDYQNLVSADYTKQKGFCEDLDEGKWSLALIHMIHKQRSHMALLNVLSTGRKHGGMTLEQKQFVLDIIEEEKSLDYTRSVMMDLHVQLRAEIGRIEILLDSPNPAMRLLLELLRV

In the case of `NCCC(O)(P(=O)(O)O)P(=O)(O)O` [pamidronate], the X-ray crystal structure result is reported as “The substrate analogue pamidronate (Supplementary Information Figure S4) binds in the DMAPP binding site”.
